# Results as given in paper PMC6919601, “Identification of Plasmodium dipeptidyl aminopeptidase allosteric inhibitors by high throughput screening” (PLoS ONE, 2019).
# Hit rate of the full screen: of about 110,000 compounds, about 230 (0.21%) showed an effect of 50% or more. This is one part of the list.
# Molecular target: DPAP1 (Plasmodium falciparum, UniProt Q8IIJ9)
# Assay: primary screen, percent inhibition; read by cleavage of a fluorogenic dipeptide substrate; higher = more effect of the substance
# Set-up: species or system P. falciparum D10 trophozoite lysates; single well
# 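Note: 30 min substrate incubation versus DMSO and 10 µM JCP410 controls.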
# Sequence of DPAP1 (Q8IIJ9 whole entry, looked up): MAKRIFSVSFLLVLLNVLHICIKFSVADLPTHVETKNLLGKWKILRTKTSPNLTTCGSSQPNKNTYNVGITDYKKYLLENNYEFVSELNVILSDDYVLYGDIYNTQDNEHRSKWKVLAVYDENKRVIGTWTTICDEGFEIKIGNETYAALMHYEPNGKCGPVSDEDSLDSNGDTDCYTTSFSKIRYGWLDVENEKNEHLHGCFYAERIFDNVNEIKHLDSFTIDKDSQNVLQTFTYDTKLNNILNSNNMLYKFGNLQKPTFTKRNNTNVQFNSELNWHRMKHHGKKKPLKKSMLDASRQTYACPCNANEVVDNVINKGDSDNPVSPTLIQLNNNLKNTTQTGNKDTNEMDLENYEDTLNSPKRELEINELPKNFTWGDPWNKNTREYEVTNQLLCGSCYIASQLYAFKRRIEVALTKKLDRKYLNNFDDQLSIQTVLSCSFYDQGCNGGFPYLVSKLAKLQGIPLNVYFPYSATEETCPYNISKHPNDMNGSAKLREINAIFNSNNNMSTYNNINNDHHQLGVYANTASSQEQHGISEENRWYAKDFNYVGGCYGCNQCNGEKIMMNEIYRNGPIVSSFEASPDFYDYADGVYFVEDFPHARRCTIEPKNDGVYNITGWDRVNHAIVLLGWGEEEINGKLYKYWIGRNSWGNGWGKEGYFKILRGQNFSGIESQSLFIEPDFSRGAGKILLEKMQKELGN
row,SMILES,% Inhibition @ 10 uM
1,COc1ccc2c(CNCCc3ccccc3OC)c(C(=O)O)n(Cc3ccccc3F)c2c1,0.0525%
2,O=C(O)c1ccc(S(=O)(=O)c2ccc(N3CCCCC3)cc2)cc1,0.847%
3,COCCCNC(=O)c1ccc(CS(=O)(=O)Cc2ccccc2Cl)o1,6.32%
4,COc1ccc(-c2nc(CS(=O)CC(=O)N3CCc4ccccc4C3)c(C)o2)cc1 (stereo not shown),-1.05%
5,Cc1nn(C)cc1CNC(=O)c1cc2nc3c(c(C(F)(F)F)n2n1)CCc1ccccc1-3,-5%
6,CC(C)OC(=O)c1c(NC(=O)c2ccc(Cn3cc(Cl)cn3)o2)sc2c1CCCC2,-2.9%
7,COCc1nc(O)c2c(n1)-c1ccccc1CC21CCCC1,1.4%
8,COc1cc(F)ccc1S(=O)(=O)N1CCOCC1,3.01%
9,CS(=O)(=O)CCC(C(=O)Nc1ccc(Cl)cn1)N1Cc2ccccc2C1=O (stereo not shown),-2.96%
10,CC(=O)C(C)n1c(CN(Cc2ccccc2)Cc2ccccc2)nc2c1c(=O)[nH]c(=O)n2C (stereo not shown),0.44%
11,CC1Cc2nc(SCC(=O)NC3CCCCC3)n(CCc3ccccc3)c(=O)c2S1 (stereo not shown),-1.62%
12,COc1ccc(C(=O)N2CCC(C(=O)Nc3ccccc3Br)CC2)cc1OC,-4.97%
13,O=S(=O)(NCc1ccccc1Cl)c1cccc2nsnc12,-1.2%
14,CCCc1cc(O)n2nc(NC(=O)C(C)C)nc2n1,-1.53%
15,Cc1nc2cc(-c3ccc(Cl)cc3)nn2c(C)c1CCC(=O)NC(C)c1ccc2c(c1)OCCO2 (stereo not shown),-0.685%
16,Cn1nnnc1SCCCNCc1ccncc1,-4.71%
17,Cc1cc(O)nc2sc(C(=O)c3ccc(Cl)c(Cl)c3)c(N)c12,4.54%
18,COc1ccc(Cl)cc1/C=C1\N=C(SC)SC1=O,4.18%
19,COC(=O)c1ccc(-c2ccco2)n1CC(=O)NCCCN1CCCC1=O,2.34%
20,COc1cc(-c2cc(NC(=O)COCc3cc(-c4ccc(F)cc4)on3)on2)cc(OC)c1OC,-2.69%
21,O=C(NCC1(c2ccccc2)CCCC1)c1ccc(F)cc1,-1.19%

row,SMILES,% Inhibition @ 10 uM
1,Cc1ccc(C(=O)C2=C(O)C(=O)N(Cc3ccco3)C2c2ccc(N(C)C)cc2)o1 (stereo not shown),1.61%
2,O=C(COc1ccc(Cl)cc1Br)Nc1ccc(F)cc1,-1.11%
3,CN(CCc1ccccn1)Cc1ccccc1,1.91%
4,O=C(Cn1nc(C(F)(F)F)cc1C1CC1)Nc1cc(F)ccc1F,-1.88%
5,N#Cc1ccc(Oc2ccc(N3C(=O)c4ccc([N+](=O)[O-])cc4C3=O)cc2)cc1,0.266%
6,Cc1cccc(Cn2c(NCCN(C)C)nc3c2c(=O)[nH]c(=O)n3C)c1,-1.4%
7,COc1ccc(CCNC(=O)CNS(=O)(=O)c2ccc3nc(C)sc3c2)cc1OC,2.57%
8,Cc1cc(C)cc(N(CC(=O)N2CCN(C(c3ccccc3)c3ccccc3)CC2)S(C)(=O)=O)c1,3.17%
9,COc1cc(CN2CCN(Cc3c[nH]c4ccccc34)CC2)cc(OC)c1OC,-7.84%
10,COc1ccc(/C=N/c2nc3c(ccc4ccccc43)s2)cc1,1.76%
11,O=C(NCc1ccccc1Cl)C1CCC(Cn2c(=O)[nH]c3ccsc3c2=O)CC1 (stereo not shown),-4.86%
12,CNC(=O)c1c(NC(=O)c2ccccc2)sc2c1CCC(C(C)(C)C)C2 (stereo not shown),6.08%
13,Cc1cc2ncn(Cc3c(F)cccc3Cl)c2cc1C,-7.83%
14,CCCCS(=O)(=O)CC(O)COC (stereo not shown),-4.91%
15,O=S(=O)(c1ccc(-n2cccn2)cc1)N1CC=C(c2ccccc2)CC1,-6.3%
16,CC1=C(C(=O)Nc2ccc(C)cc2)C(c2ccc(Br)cc2)NC(S)=N1 (stereo not shown),-1.5%
17,OCCN1CCN(C2CCN(CCc3ccccc3)CC2)CC1,-1.81%
18,Cn1c(=O)c2nc(Cl)n(Cc3ccccc3Cl)c2n(C)c1=O,-8.59%
19,Cc1ccccc1CSc1nc2ccncc2n1Cc1ccc(C(=O)NCc2ccccn2)cc1,2.99%
20,Nc1ccc(O)c(-c2nc3cc(N)ccc3[nH]2)c1,-3%
21,CCOC(=O)NCCc1c[nH]c2ccc(OCc3ccccc3)cc12,-3.16%

row,SMILES,% Inhibition @ 10 uM
1,CC(=O)O[C@H]1CC[C@H](C[C@H](NC(=O)c2ccccc2)C(=O)NCC#N)CC1,1.35%
2,CN(Cc1ccncc1)C1CC(=O)N(c2ccc(F)cc2)C1=O (stereo not shown),-4.65%
3,Cc1ccc(S(=O)(=O)NCc2ccc(C(=O)NCc3cccnc3)cc2)cc1,-3.58%
4,CCOC(=O)NC1(C(F)(F)F)NC(=O)N(Cc2cccnc2)C1=O (stereo not shown),0.221%
5,C=CCC(NCc1ccccc1)c1ccc(C)o1 (stereo not shown),-7.87%
6,COc1ccc(OC)c(S(=O)(=O)N2CCC3(CC2)N=C(SC)C(c2ccccc2)=N3)c1,-2.5%
7,Cc1ccc(CNC(=O)Cn2nc(Cc3cccnc3)c3ccccc3c2=O)cc1,-1.21%
8,CC(C)(C)NS(=O)(=O)c1ccc(NC(=O)c2ccc(F)cc2)cc1,-1.17%
9,COc1ccc(CNC(=O)CSc2nnc(C)c3c(C)n(-c4ccc(Cl)cc4)nc23)c(OC)c1,4.56%
10,CCc1ccc(CNC(=O)C(CC)n2nc(C)c3sc4ccccc4c3c2=O)cc1 (stereo not shown),90.8%
11,COc1ccc(CNC2CCCCC2OC)cc1 (stereo not shown),4.61%
12,CCOC(=O)c1[nH]c2ccccc2c1NC(=O)c1ccc(Br)o1,-0.58%
13,CCO/C(O)=C1\C(C)=NC2=C(C(=O)CC(C)(C)C2)C1c1ccc(Cl)c(Cl)c1 (stereo not shown),2.45%
14,Cc1ccc(N2C(=O)CC(NCCc3cccc(Cl)c3)C2=O)cc1 (stereo not shown),-4.16%
15,COc1ccc(NC(=O)c2ccc(CN3CCc4ccccc4C3)cc2)c(OC)c1,-0.171%
16,COC(=O)C1=C(C)N(Cc2ccc(OC)cc2)C(=O)/C1=C\c1cc(C)n(-c2ccccc2F)c1C,-3.63%
17,CC(=O)Nc1ccc(S(=O)(=O)Nc2ccccc2C(=O)NC(C)c2ccccc2)cc1 (stereo not shown),0.749%
18,N#CC1=C(N)Oc2[nH]nc(-c3ccccc3)c2C1c1ccc(O)c(O)c1 (stereo not shown),-0.996%
19,CC1CCN(S(=O)(=O)c2ccc3c(ccn3CCC(=O)N3CCC4(CC3)OCCO4)c2)CC1,7.98%
